# Reference: PubChem BioAssay AID1625 (Sanford-Burnham Center for Chemical Genomics, 2009)
# Several values for one entry are separate records, joined by “and”; a condition that tells them apart may be missing. Equal entries are not always repeated. The list shows a part of the results. Further columns of the screen follow, without active or inactive calls. Most of these compounds were active or inconclusive in the main read-out, so they are no random draw.
# Test: up-regulation of insulin promoter-GFP reporter – imaging, high-content screening, mouse beta cells (AID 1625);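 further: total cells summed across four imaged fields per well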
# Conditions: MIN6 insulin promoter-GFP reporter, measured here: cytotoxicity, nuclei count, at 5 µM
row,SMILES,cell count
1,COc1ccc(CNc2cc(C)nc3ncnn23)c(OC)c1,489 cells
2,COc1ccccc1NC(=O)C1=C(C)NC(SCC(=O)c2ccc(C)cc2)=C(C#N)C1c1ccco1 (stereo not given),836 cells
3,COc1cccc(/C=N/Nc2nc(Nc3ccccc3)nc(-n3nc(C)cc3C)n2)c1O,186 cells
4,CCOc1ccc(-n2c(-c3ccc(OC)cc3)c[n+]3c2CCCCC3)cc1,446 cells
5,Cc1c(C(=O)O)cccc1-c1ccc(/C=C2/NC(=O)N(c3ccccc3)C2=O)o1,1480 cells
6,CCN(CC)c1ccc2cc(/C(N)=N/NC(=O)c3cccs3)c(=O)oc2c1,1060 cells
7,Cc1ccc(CNC(=O)c2nn(C)c(C)c2[N+](=O)[O-])cc1,365 cells
8,CC1(C)Cc2c(C#N)c(N3CCN(C(=O)c4ccco4)CC3)nc(-c3ccco3)c2CS1,344 cells
9,CCOc1cc(N(CC)CC)ccc1/C=C(/C#N)c1nc2ccccc2[nH]1,1100 cells
10,COc1ccc2cc3cc(C(=O)NCc4ccccn4)oc3nc2c1,1430 cells
11,O=C(C1CC(c2ccc(F)cc2)=NO1)N1CCN(Cc2ccccc2)CC1 (stereo not given),301 cells
12,COc1ccccc1N1CCN(/N=C/c2c(C)nn(-c3ccccc3)c2C)CC1,423 cells
13,COc1ccc(CNC[C@@H](CCCCN(C)Cc2ccc(OC)cc2)N2C[C@H](c3ccccc3)N(CCc3ccc(Cl)c(Cl)c3)C(=O)C2=O)cc1,309 cells
14,CCN(CC)c1ccc2cc(-c3nc4ccccc4[nH]3)c(=O)oc2c1,1580 cells
15,O=C(O)c1cc(-c2ccc(/C=C3/SC(=S)N(Cc4ccccc4)C3=O)o2)ccc1Cl,1080 cells
16,CC1CCc2onc(C(=O)O)c2C1 (stereo not given),452 cells
17,CCN1/C(=C/c2ccc3ccccc3[n+]2CC)C=Cc2ccccc21,198 cells
18,CCCNC(=S)NC1CC2CCCC(C1)N2CC(C)C (stereo not given),481 cells
19,O=c1cc(CSc2nnc(-c3cccs3)n2Cc2ccccc2)nc2sc3ccccc3n12,204 cells
20,CC(C)N1CC=C2C(C#N)=C(N)C(C#N)(C#N)[C@H](c3ccoc3)[C@H]2C1,1230 cells
21,Cc1nn(-c2ccc(F)cc2)c2nc(N)c(C#N)c(-c3cccs3)c12,454 cells
22,CCOC(=O)N1CCN(C(=O)NC2CCCCC2)CC1,1510 cells
23,CCCNc1c(F)c(F)c2c(C)c3ccccc3nc2c1F,1670 cells
24,COc1ccc(-n2c(-c3ccccc3)c[n+]3c2CCC3)cc1,380 cells
25,Cc1ccc(-c2nn(CCC#N)cc2C=C(C#N)C#N)cc1,435 cells
26,COC(=O)C1=C(N)n2c(s/c(=C\c3cccnc3)c2=O)=C(C(=O)OC)C1c1cccnc1 (stereo not given),1050 cells
27,CC1CCCC(C)N1C(=O)CSc1nnc(-c2cccs2)o1 (stereo not given),1340 cells

row,SMILES,cell count
1,S=C(NNc1ccnc2cc(Cl)ccc12)Nc1ccccc1Cl,352 cells
2,Cc1ccc(C(=O)NCCCn2ccnc2)cc1[N+](=O)[O-],1500 cells
3,CC1CCC(NC(=O)C2CCC(CNS(=O)(=O)c3cccc4nsnc34)CC2)CC1 (stereo not given),452 cells
4,CCOC(=O)c1cnn(-c2cc(C)nc3c(-c4ccccc4)cnn23)c1N,899 cells
5,COc1ccc(CN2CCN(C(=O)C3CC(=O)N(C4CCCCCC4)C3)CC2)c(OC)c1OC (stereo not given),468 cells
6,CCc1ccc(C(=O)NN(C(=O)c2ccc(CC)cc2)C(C)(C)C)cc1,348 cells
7,CN1\C(=C/C=C/C=C/C=[N+](C)C)C(C)(C)c2ccccc21,410 cells
8,CCOc1ccc(C(=O)Nc2cc(C)c3c(=O)oc4ccccc4c3n2)cc1,413 cells
9,CN1CC=C2C(C#N)=C(N)C(C#N)(C#N)C(c3cccc(Cl)c3Cl)C2C1 (stereo not given),1150 cells
10,Cc1cc(N2C(=O)c3ccccc3C2=O)n(C)n1,1420 cells
11,C=C1C(=O)C=C2CN(C(=O)c3ccccc3)[C@@](Cc3ccc(F)cc3)(C(=O)OC)[C@@H]12,200 cells
12,CCCNC(=O)N1CCN(c2nc(C(C)C)c3c(c2C#N)CC(C)(C)OC3)CC1,498 cells
13,COc1cccc2c(=O)n(CC(=O)Nc3cccc(F)c3)ccc12,743 cells
14,COc1ccc(C)cc1N1C(=N)/C(=C2/Nc3ccccc3S2)C(c2ccccc2)C1=O (stereo not given),467 cells
15,FC(F)Oc1ccc(-n2cc(-c3ccccc3)[n+]3c2CCCCC3)cc1,463 cells
16,c1csc(-c2csc3ncnc(NCCCN4CCOCC4)c23)c1,472 cells
17,CCCCCc1ccc(OCCCC[n+]2cccc(C)c2)c(CCCCC)c1,400 cells
18,CC[n+]1c(/C=C/N(C)c2ccccc2)oc2ccc(F)cc21,231 cells
19,CCOC(=O)c1cc2c(C)n(-c3ccc(C)cc3)c(C)c2ccc1=O,305 cells
20,Cc1ccc(-c2cc3cccc[n+]3cc2-c2ccc(C)cc2)cc1,225 cells
21,O=C(Nc1ccc(S(=O)(=O)N2CCCCC2)cc1)c1ccc(CN2CCc3ccccc3C2)cc1,304 cells
22,CNC(=O)C1CC(=O)N/C(=N/N=C(\C)c2cccs2)S1 (stereo not given),1680 cells
23,c1ccc(CSC2=NNC(c3ccccn3)S2)cc1 (stereo not given),481 cells
24,Cc1ccc(C[n+]2cccc(-c3ccccc3)c2)c(C)c1,315 cells
25,CCCN1C(=O)S/C(=C\c2ccc(N3CCOCC3)o2)C1=O,1310 cells
26,Cc1ccc(-c2cn(-c3ccccc3)c3[n+]2CCCS3)cc1,295 cells and 232 cells
27,CN1C(=S)N(c2cccnc2)C(=O)/C1=C\c1ccc(N(C)C)cc1,1430 cells

row,SMILES,cell count
1,C#CC(=O)N(c1ccc(OC)cc1OC)C(C(=O)NC1CCCC1)c1cccs1 (stereo not given),490 cells
2,CCN1CCN(Cc2ccc(NC(=O)c3ccc(C)c(NC(=O)c4c[nH]c5cc(C(F)(F)F)ccc5c4=O)c3)cc2C(F)(F)F)CC1,200 cells
3,Cc1noc(/C=C/c2ccc(-c3ccccc3Cl)o2)c1[N+](=O)[O-],1260 cells
4,CN(C)c1ccc(/C=C/c2ccc3ccccc3n2)cc1,1470 cells
5,COc1ccc(N(CC(=O)NC2CCCC2)S(=O)(=O)c2c(C)[nH]c(=O)[nH]c2=O)cc1,292 cells
6,COc1cc(/C=N/NC(=O)CSc2ccccn2)ccc1O,296 cells
7,COc1ccc(N/N=C/c2c(C(=O)O)ccc3ccccc23)cc1,409 cells
8,Cc1cccc(OCc2nnc(SCC(=O)Nc3cccc(C(=O)N4CCOCC4)c3)o2)c1C,371 cells
9,c1ccc(-c2c[n+]3c(n2-c2ccccc2)CCC3)cc1,496 cells
10,Nc1ccc2c(c1)CC(=O)c1ccccc1S2,433 cells
11,O=C(Nc1nc(-c2ccccn2)cs1)c1ccc(S(=O)(=O)N2CCCCC2)cc1,396 cells
12,N=c1c2c(n(Cc3ccc(Br)cc3)c3c1CCC3)CCCC2,340 cells
13,OCCCNc1nccc(-c2cc(Nc3cccc(Cl)c3)ncn2)n1,484 cells
14,COc1ccc(C=C2c3ccccc3C(=O)c3ccccc32)c(OC)c1,498 cells
15,CCCCCCCn1ccc(=N)cc1,250 cells
16,COCCN1CN(S(=O)(=O)c2ccccc2)c2nc3ccccc3nc21,1160 cells
17,Cc1ccc(/C=[N+](\[O-])c2ccc(N(C)C)cc2)c2nsnc12,1240 cells
18,O=C(Nc1ccc(N2CCCCC2)cc1)c1cccnc1,1240 cells
19,C#CCOCCOCCOCCNc1nc(N2CCN(C(=O)[C@H]([C@@H](C)O)n3cc(CCCCN)nn3)CC2)nc(N2CCN(C(=O)[C@H]([C@@H](C)CC)n3cc(CCCN=C(N)N)nn3)CC2)n1,410 cells
20,Oc1ccc(/C=N/Nc2ccnc3cc(Cl)ccc23)c(O)c1,1010 cells
21,COc1ccc2cc(CCNC(=O)c3c(-c4ccccc4Cl)noc3C)c(=O)[nH]c2c1,420 cells
22,CCN(CC)c1ccc(NC2=C(Cl)C(=O)c3ccccc3C2=O)cc1,286 cells
23,O=C(N/N=C/C(Br)=C\c1ccccc1)c1n[nH]c2c1CCC2,421 cells
24,CN(C)CCCCNCCCNC(=O)/C=N\O,453 cells
25,COc1ccccc1CNC(=O)C1=C(C)C(=O)OC12CCC(C)CC2 (stereo not given),460 cells
26,O=C(NC(Nc1nc2ccc([N+](=O)[O-])cc2s1)(C(F)(F)F)C(F)(F)F)c1ccccc1Cl,458 cells
27,COc1ccc(C2CC(c3ccccc3)=NN2c2ccc(S(N)(=O)=O)cc2)cc1 (stereo not given),489 cells

row,SMILES,cell count
1,Cc1ccc(-n2c(C)cc(C(=O)CSc3nncs3)c2C)cc1,442 cells
2,O=[N+]([O-])c1ccc(N/N=C/c2ccc[nH]2)cc1,689 cells
3,O=C(NCc1ccco1)c1ccc(=O)[nH]n1,464 cells
4,O=C(C1CCCCN1S(=O)(=O)c1ccccc1)N1CCN(C(c2ccccc2)c2ccccc2)CC1 (stereo not given),356 cells
5,c1ccc2c(c1)OC(CCCN1CCCCC1)c1ccccc1S2 (stereo not given),499 cells
6,CCCOc1cc(N(CC)CC)ccc1/C=C(/C#N)c1nc2ccc(C)cc2[nH]1,1050 cells
7,O=C(Oc1cccc2cccnc12)c1ccco1,486 cells
8,O=C(Cc1c(F)cccc1Cl)Nc1ccncc1,381 cells
9,O=C(NC1(C(F)(F)F)NC(=O)N(c2ccc(F)c(Cl)c2)C1=O)c1ccncc1 (stereo not given),1500 cells
10,O=C(NCc1ccc(F)cc1)C1CCCN(S(=O)(=O)c2cccnc2)C1 (stereo not given),1210 cells
11,O=C1c2ccccc2C(O)(Cc2ccccc2)N1C1CCCCC1 (stereo not given),471 cells
12,COc1cc2c3nnc(-c4ccccc4)c-3cn(Cc3ccccc3F)c2cc1OC,954 cells
13,COc1ccc(C)cc1NC(=O)COC(C)=O,844 cells
14,CCc1c(C)nc2ncnn2c1NCCc1ccc(OC)cc1,271 cells
15,CN1C=CC2=C(C#N)C(N)C(C#N)(C#N)C(c3ccccc3)C2C1 (stereo not given),1770 cells
16,O=c1c(Br)c(Br)cnn1-c1ccccc1,435 cells
17,O=c1[nH]c2ccccc2nc1/C=C/c1ccc(F)cc1,1380 cells
18,COc1ccccc1CC(=O)NC1CC(C)(C)NC(C)(C)C1,1050 cells
19,CCN1CCc2c(sc(NC(=O)Nc3ccc(Cl)c(Cl)c3)c2C(N)=O)C1,1100 cells
20,COc1ccc(C2=NC(=O)/C(=C\c3cc(OC)c(OC)c(OC)c3)O2)cc1,1220 cells
21,Cc1ccc(CNc2nc(C)nc3sc4c(c23)CCC4)cc1,406 cells
22,C=CCn1c(-c2oc3nc(-c4ccccc4)cc(-c4ccccc4)c3c2N)n[nH]c1=S,852 cells
23,COCC(=O)O[C@]1(CCN(C)CCCc2nc3ccccc3[nH]2)CCc2cc(F)ccc2[C@@H]1C(C)C,420 cells
24,O=C1S/C(=C\c2ccc(N3CCOCC3)o2)C(=O)N1Cc1c(F)cccc1Cl,1660 cells
